# Experimental data taken from the supplement of paper PMC8728848.
# This is one part of the list.
# Experiments:
# Experiment in all cases: glycan array binding signal (z-score within array); higher = stronger binding
# Conditions in all cases: glycan notation: IUPAC condensed, linker removed
# [1] = target: Gal(b1-3)GlcNAc(b1-6)[Gal(b1-3)]GalNAc
# Outline: (§1)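 The binding signal is a Z-score computed within each array and averaged over linkers. Arrays of the same protein sequence at different concentrations or buffers were also averaged together. Data originate from 3228 arrays in the Consortium for Functional Glycomics database, kept only where the protein sequence was available.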
# [2] = target: Gal(b1-3)GlcNAc6S
# Outline: as §1
# [3] = target: Gal(b1-3)[Fuc(a1-4)]GlcNAc
# Outline: as §1
# [4] = target: Gal(b1-3)[Fuc(a1-4)]GlcNAc(b1-2)Man
# Outline: as §1
# [5] = target: Gal(b1-3)[Fuc(a1-4)]GlcNAc(b1-2)Man(a1-3)[Gal(b1-3)[Fuc(a1-4)]GlcNAc(b1-2)Man(a1-6)]Man(b1-4)GlcNAc(b1-4)[Fuc(a1-6)]GlcNAc
# Outline: as §1
# [6] = target: Gal(b1-3)[Fuc(a1-4)]GlcNAc(b1-3)Gal(b1-3)[Fuc(a1-4)]GlcNAc
# Outline: as §1
# [7] = target: Gal(b1-3)[Fuc(a1-4)]GlcNAc(b1-3)Gal(b1-4)[Fuc(a1-3)]GlcNAc
# Outline: as §1
# [8] = target: Gal(b1-3)[Fuc(a1-4)]GlcNAc(b1-6)GalNAc
# Outline: as §1
# [9] = target: Gal(b1-3)[GlcNAc(b1-6)]GalNAc
# Outline: as §1
# [10] = target: Gal(b1-3)[Neu5Ac(a2-6)]GalNAc
# Outline: as §1
# [11] = target: Gal(b1-3)[Neu5Ac(a2-6)]GlcNAc(b1-4)Gal(b1-4)Glc
# Outline: as §1
# [12] = target: Gal(b1-3)[Neu5Ac(b2-6)]GalNAc
# Outline: as §1
# [13] = target: Gal(b1-4)Gal
# Outline: as §1
# [14] = target: Gal(b1-4)GalNAc(a1-3)[Fuc(a1-2)]Gal(b1-4)GlcNAc
# Outline: as §1
# [15] = target: Gal(b1-4)GalNAc(b1-3)[Fuc(a1-2)]Gal(b1-4)GlcNAc
# Outline: as §1
# [16] = target: Gal(b1-4)Glc
# Outline: as §1
# [17] = target: Gal(b1-4)Glc6S
# Outline: as §1
# [18] = target: Gal(b1-4)GlcNAc
# Outline: as §1
# [19] = target: Gal(b1-4)GlcNAc(a1-6)Gal(b1-4)GlcNAc
# Outline: as §1
# [20] = target: Gal(b1-4)GlcNAc(b1-2)Man
# Outline: as §1
# [21] = target: Gal(b1-4)GlcNAc(b1-2)Man(a1-3)Man(b1-4)GlcNAc(b1-4)GlcNAc
# Outline: as §1
# [22] = target: Gal(b1-4)GlcNAc(b1-2)Man(a1-3)[Gal(b1-4)GlcNAc(b1-2)Man(a1-6)]Man(b1-4)GlcNAc(b1-4)GlcNAc
# Outline: as §1
# [23] = target: Gal(b1-4)GlcNAc(b1-2)Man(a1-3)[Gal(b1-4)GlcNAc(b1-2)Man(a1-6)]Man(b1-4)GlcNAc(b1-4)[Fuc(a1-6)]GlcNAc
# Outline: as §1
# [24] = target: Gal(b1-4)GlcNAc(b1-2)Man(a1-3)[Gal(b1-4)GlcNAc(b1-2)Man(a1-6)][Gal(b1-4)GlcNAc(b1-4)]Man(b1-4)GlcNAc(b1-4)[Fuc(a1-6)]GlcNAc
# Outline: as §1
# [25] = target: Gal(b1-4)GlcNAc(b1-2)Man(a1-3)[Gal(b1-4)GlcNAc(b1-2)Man(a1-6)][GlcNAc(b1-4)]Man(b1-4)GlcNAc(b1-4)[Fuc(a1-6)]GlcNAc
# Outline: as §1
# [26] = target: Gal(b1-4)GlcNAc(b1-2)Man(a1-3)[GlcNAc(b1-2)Man(a1-6)]Man(b1-4)GlcNAc(b1-4)GlcNAc
# Outline: as §1
# [27] = target: Gal(b1-4)GlcNAc(b1-2)Man(a1-3)[GlcNAc(b1-4)][Gal(b1-4)GlcNAc(b1-2)Man(a1-6)]Man(b1-4)GlcNAc(b1-4)GlcNAc
# Outline: as §1
# [28] = target: Gal(b1-4)GlcNAc(b1-2)Man(a1-3)[Man(a1-6)]Man(b1-4)GlcNAc(b1-4)GlcNAc
# Outline: as §1
# [29] = target: Gal(b1-4)GlcNAc(b1-2)Man(a1-6)Man(b1-4)GlcNAc(b1-4)GlcNAc
# Outline: as §1
# [30] = target: Gal(b1-4)GlcNAc(b1-2)Man(a1-6)[GlcNAc(b1-2)Man(a1-3)]Man(b1-4)GlcNAc(b1-4)GlcNAc
# Outline: as §1
# [31] = target: Gal(b1-4)GlcNAc(b1-2)Man(a1-6)[Man(a1-3)]Man(b1-4)GlcNAc(b1-4)GlcNAc
# Outline: as §1
# [32] = target: Gal(b1-4)GlcNAc(b1-2)[Gal(b1-4)GlcNAc(b1-4)]Man(a1-3)[Gal(b1-4)GlcNAc(b1-2)Man(a1-6)]Man(b1-4)GlcNAc(b1-4)GlcNAc
# Outline: as §1
# [33] = target: Gal(b1-4)GlcNAc(b1-2)[Gal(b1-4)GlcNAc(b1-4)]Man(a1-3)[Gal(b1-4)GlcNAc(b1-2)[Gal(b1-4)GlcNAc(b1-6)]Man(a1-6)]Man(b1-4)GlcNAc(b1-4)GlcNAc
# Outline: as §1
# [34] = target: Gal(b1-4)GlcNAc(b1-2)[Gal(b1-4)GlcNAc(b1-4)]Man(a1-3)[GlcNAc(b1-4)][Gal(b1-4)GlcNAc(b1-2)Man(a1-6)]Man(b1-4)GlcNAc(b1-4)GlcNAc
# Outline: as §1
# [35] = target: Gal(b1-4)GlcNAc(b1-2)[Gal(b1-4)GlcNAc(b1-4)]Man(a1-3)[GlcNAc(b1-4)][Gal(b1-4)GlcNAc(b1-2)[Gal(b1-4)GlcNAc(b1-6)]Man(a1-6)]Man(b1-4)GlcNAc(b1-4)GlcNAc
# Outline: as §1
# [36] = target: Gal(b1-4)GlcNAc(b1-2)[Gal(b1-4)GlcNAc(b1-6)]Man(a1-6)[Gal(b1-4)GlcNAc(b1-2)Man(a1-3)]Man(b1-4)GlcNAc(b1-4)GlcNAc
# Outline: as §1
# [37] = target: Gal(b1-4)GlcNAc(b1-2)[Gal(b1-4)GlcNAc(b1-6)]Man(a1-6)[Gal(b1-4)GlcNAc(b1-2)Man(a1-3)]Man(b1-4)GlcNAc(b1-4)[Fuc(a1-6)]GlcNAc
# Outline: as §1
# [38] = target: Gal(b1-4)GlcNAc(b1-2)[Gal(b1-4)GlcNAc(b1-6)]Man(a1-6)[GlcNAc(b1-4)][Gal(b1-4)GlcNAc(b1-2)Man(a1-3)]Man(b1-4)GlcNAc(b1-4)GlcNAc
# Outline: as §1
# [39] = target: Gal(b1-4)GlcNAc(b1-2)[Gal(b1-4)GlcNAc(b1-6)]Man(a1-6)[GlcNAc(b1-4)][Gal(b1-4)GlcNAc(b1-2)[Gal(b1-4)GlcNAc(b1-4)]Man(a1-3)]Man(b1-4)GlcNAc(b1-4)[Fuc(a1-6)]GlcNAc
# Outline: as §1
# [40] = target: Gal(b1-4)GlcNAc(b1-3)Gal(b1-3)GalNAc
# Outline: as §1
# [41] = target: Gal(b1-4)GlcNAc(b1-3)Gal(b1-3)GlcNAc
# Outline: as §1
# [42] = target: Gal(b1-4)GlcNAc(b1-3)Gal(b1-4)Glc
# Outline: as §1
# [43] = target: Gal(b1-4)GlcNAc(b1-3)Gal(b1-4)GlcNAc
# Outline: as §1
# [44] = target: Gal(b1-4)GlcNAc(b1-3)Gal(b1-4)GlcNAc(b1-2)Man(a1-3)[Gal(b1-4)GlcNAc(b1-3)Gal(b1-4)GlcNAc(b1-2)Man(a1-6)]Man(b1-4)GlcNAc(b1-4)GlcNAc
# Outline: as §1
# [45] = target: Gal(b1-4)GlcNAc(b1-3)Gal(b1-4)GlcNAc(b1-2)Man(a1-3)[Gal(b1-4)GlcNAc(b1-3)Gal(b1-4)GlcNAc(b1-2)Man(a1-6)]Man(b1-4)GlcNAc(b1-4)[Fuc(a1-6)]GlcNAc
# Outline: as §1
binder,measurement,setting,value
TIM1 (protein) ADGIQSVKVGGEAGPSVTLPCHYSGAVTSMCWNRGSCSLFTCQNGIVWTNGTHVTYRKDTRYKLLGDLSRRDVSLTIENTAVSDSGVYCCRVEHRGWFNDMKITVSLEIVPPHHHHHH,glycan array binding signal (z-score),[1],-0.192
same,glycan array binding signal (z-score),[2],-0.212
same,glycan array binding signal (z-score),[3],-0.25
same,glycan array binding signal (z-score),[4],0
same,glycan array binding signal (z-score),[5],-0.173
same,glycan array binding signal (z-score),[6],-0.256
same,glycan array binding signal (z-score),[7],-0.269
same,glycan array binding signal (z-score),[8],0.158
same,glycan array binding signal (z-score),[9],-0.176
same,glycan array binding signal (z-score),[10],-0.188
same,glycan array binding signal (z-score),[11],-0.186
same,glycan array binding signal (z-score),[12],-0.248
same,glycan array binding signal (z-score),[13],-0.124
same,glycan array binding signal (z-score),[14],-0.212
same,glycan array binding signal (z-score),[15],-0.268
same,glycan array binding signal (z-score),[16],-0.175
same,glycan array binding signal (z-score),[17],-0.043
same,glycan array binding signal (z-score),[18],-0.241
same,glycan array binding signal (z-score),[19],-0.255
same,glycan array binding signal (z-score),[20],0.009
same,glycan array binding signal (z-score),[21],-0.127
same,glycan array binding signal (z-score),[22],-0.246
same,glycan array binding signal (z-score),[23],0.049
same,glycan array binding signal (z-score),[24],-0.272
same,glycan array binding signal (z-score),[25],-0.27
same,glycan array binding signal (z-score),[26],-0.183
same,glycan array binding signal (z-score),[27],-0.263
same,glycan array binding signal (z-score),[28],-0.176
same,glycan array binding signal (z-score),[29],-0.153
same,glycan array binding signal (z-score),[30],-0.166
same,glycan array binding signal (z-score),[31],-0.091
same,glycan array binding signal (z-score),[32],-0.059
same,glycan array binding signal (z-score),[33],-0.274
same,glycan array binding signal (z-score),[34],-0.279
same,glycan array binding signal (z-score),[35],-0.269
same,glycan array binding signal (z-score),[36],-0.294
same,glycan array binding signal (z-score),[37],-0.081
same,glycan array binding signal (z-score),[38],-0.257
same,glycan array binding signal (z-score),[39],-0.205
same,glycan array binding signal (z-score),[40],-0.205
same,glycan array binding signal (z-score),[41],-0.197
same,glycan array binding signal (z-score),[42],-0.209
same,glycan array binding signal (z-score),[43],-0.276
same,glycan array binding signal (z-score),[44],7.65
same,glycan array binding signal (z-score),[45],-0.023
